In the supplement of paper PMC3334620:
The full ranking holds about 33,000 sequences; the median of “E-score (-0.5 to 0.5)” is about -0.016, and the highest 2% start at about 0.31. Some of the results follow.

The sequences below were run against Cst6 (UniProt P40535) (assay: PBM E-score (8-mer binding enrichment) (E-score (-0.5 to 0.5)); higher = stronger / more preferred TF binding; most listed sequences are background and not binding sites). Conditions: protein concentration: 200 nM; construct: GST-DNA-binding domain.
Summary of the method: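 Using PURExpress in vitro transcription/translation, GST-tagged yeast transcription factors were made in full-length or DNA-binding-domain form. These were applied at about 100-200 nM to double-stranded universal all-10-mer Agilent arrays, and bound protein was detected with fluorescent anti-GST. Scans were normalised with masliner before the Universal PBM Analysis Suite assigned E-scores to ungapped eight-base words pooled with their reverse complements.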

| Sequence | PBM E-score |
| --- | --- |
| GTTTTACA | -0.00306 |
| CTCTATTC | -0.157 |
| ATCCACGC | -0.181 |
| TGTTTGAA | 0.108 |
| AGAATTCG | 0.0535 |
| GGGGGTCA | -0.424 |
| ACGTGGTG | 0.0475 |
| AGTTTTAC | 0.0527 |
| CTTGACCA | -0.223 |
| CGCGTTGC | 0.0316 |
| ATGGCACC | -0.107 |
| CGGGTGCC | 0.042 |
| ACGCATCA | 0.236 |
| CAGTTGAA | -0.0554 |
| ACTGTAAC | 0.0568 |
| AAGTAGCG | -0.0376 |
| CGGTCAAG | -0.175 |
| GGCCCCGA | -0.254 |
| GAACCAGA | -0.177 |
| AGATAGAG | 0.00099 |
| CAAGTTCC | -0.198 |
| AAACACTA | 0.214 |

| Sequence | PBM E-score |
| --- | --- |
| GTATACCA | -0.051 |
| AAAAGGGA | -0.0441 |
| AAAAAGAT | 0.168 |
| CTCCCCGC | 0.0808 |
| AGGAAGTA | -0.215 |
| AACATGCG | 0.0771 |
| CCTAACGA | 0.012 |
| GTTCCGTA | 0.0416 |
| ACTAGAAG | -0.0292 |
| AGGATGCG | -0.111 |
| CGGCTAAA | 0.252 |
| GACGCGTC | 0.151 |
| TGGAAGAA | 0.0374 |
| ATCATGCC | 0.162 |
| ACTCTACC | -0.0495 |
| GGTGGTAA | 0.02 |
| AACCCAGG | -0.205 |
| AGTCGGTA | -0.15 |
| ATTGCGAA | 0.0433 |
| GTCAAGTA | -0.054 |
| AAAGAGTG | -0.0454 |
| CACTGCGC | 0.0486 |

| Sequence | PBM E-score |
| --- | --- |
| GTCCACTA | -0.108 |
| AGTAAAAG | 0.0899 |
| CGAAAGTC | -0.0417 |
| CAAAAGTG | 0.182 |
| CGCTGTCC | -0.129 |
| GAGACTCC | -0.162 |
| AGGAGAGA | -0.0545 |
| AGCCCGGC | -0.107 |
| AAAGTACT | -0.0101 |
| CCCACAGC | -0.17 |
| CATCCACC | 0.00989 |
| GTAAGAAA | 0.181 |
| CCAGACCG | -0.0843 |
| CATAACCA | 0.0109 |
| GTGAGTCA | 0.137 |
| ATTAGTGA | 0.175 |
| AACGAGTC | -0.0864 |
| AGCATTGG | -0.129 |
| AGCCTCGC | -0.0857 |
| GCGTGGAA | -0.079 |
| GTACAAAC | 0.0687 |
| GGCATGTA | 0.0329 |

| Sequence | PBM E-score |
| --- | --- |
| TATGGTAA | 0.176 |
| ATAATTAG | 0.223 |
| ACCATGTG | 0.0156 |
| TCCCATCA | -0.107 |
| AAAGCGTC | -0.0266 |
| AACCCATA | 0.0867 |
| GCTCCACC | -0.404 |
| ACCCCTCG | -0.243 |
| AGCTCAAC | -0.142 |
| AGTGACTG | -0.0113 |
| ACCGTCGG | -0.194 |
| ATCGCCGG | -0.0344 |
| GTTTTTAA | 0.238 |
| ACATGATG | 0.118 |
| AATTACGG | 0.183 |
| ATAGAATC | 0.139 |
| AACTCGGT | -0.0595 |
| AATGAAAT | 0.37 |
| TCTCTGAA | -0.144 |
| GCTCTACC | -0.264 |
| AAAAAGAA | 0.143 |
| AGTATCCC | -0.127 |

| Sequence | PBM E-score |
| --- | --- |
| AACATTGT | 0.0101 |
| AGCGGCCA | -0.257 |
| CGATCCCC | -0.302 |
| AAAATAGA | 0.141 |
| ATTCAGTC | 0.079 |
| AAATCACA | 0.00167 |
| GATGCTAC | -0.0756 |
| CCCGTGCC | -0.12 |
| ACGAGAGA | -0.0689 |
| ATGATGGC | 0.0352 |
| AGCTACAA | -0.0193 |
| AAAATCTA | 0.169 |
| AAACTCTA | -0.0037 |
| CAGGTTAA | -0.0628 |
| CTATGAGA | -0.12 |
| AGTGCTGC | 0.0129 |
| CAGTTATC | -0.0622 |
| TATTACCA | 0.127 |
| CTCCTAGC | -0.216 |
| ACGAATAG | -0.0583 |
| CCAGTAGG | -0.248 |
| ACTCTCCG | -0.0603 |
